At least one compound was matched to its structure with a doubt left. *1 amine or outer side, *2 acyl side, *3 side chain or, on linkers, in order; H or OH if unused. Where a SMILES comes first, the peptide text is derived from it. Side-chain parts run from the residue outwards. [ ]: non-standard residue; d: D form. The star is where a group is joined. C20 diacid = O=C(O)CCCCCCCCCCCCCCCCCCC(=O)*; γGlu = O=C(O)[C@H](CCC(=O)[*:2])N[*:1]; X40 = CC(C)(C(=O)*)n1cc(Cl)cn1; X83 = Cc1ccn(C(C)(C)C(=O)*)n1; X10 = Clc1cccc(N*)c1Cl; AEEA = NCCOCCOCC(=O)O; Aib = CC(C)(N)C(=O)O; CO = O=C([*:1])[*:2]; X67 = Cc1cccc(N*)c1; GABA = NCCCC(=O)O; βAla = NCCC(=O)O
Legend:
Assay type in all cases: cell-based
GLP-1 receptor [1] = target: T1, GLP-1 receptor (Homo sapiens, UniProt P43220); test: PathHunter β-arrestin assay, GLP-1 receptor; parameters: host or cells: PathHunter CHO-K1 GLP1R β-Arrestin Cell Line
T1 sequence (P43220 24-463): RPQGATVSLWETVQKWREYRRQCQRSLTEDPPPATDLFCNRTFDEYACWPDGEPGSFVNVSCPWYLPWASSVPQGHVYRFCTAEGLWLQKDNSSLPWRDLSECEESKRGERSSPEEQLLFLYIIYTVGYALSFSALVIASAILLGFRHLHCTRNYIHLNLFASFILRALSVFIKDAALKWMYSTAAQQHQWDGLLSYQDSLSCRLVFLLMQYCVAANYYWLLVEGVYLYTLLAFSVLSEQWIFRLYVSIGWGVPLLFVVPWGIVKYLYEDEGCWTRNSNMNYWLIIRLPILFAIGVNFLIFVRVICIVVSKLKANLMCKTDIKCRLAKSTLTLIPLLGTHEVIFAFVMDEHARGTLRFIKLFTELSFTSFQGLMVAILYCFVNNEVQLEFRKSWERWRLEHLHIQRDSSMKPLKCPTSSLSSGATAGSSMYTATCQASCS

GLP-1 receptor [2] = target: T1, GLP-1 receptor; test: HitHunter cAMP assay, GLP-1 receptor
GIP receptor [3] = target: T2, GIP receptor (Homo sapiens, UniProt P48546); test: HitHunter cAMP assay, GIP receptor
T2 sequence (P48546 22-466): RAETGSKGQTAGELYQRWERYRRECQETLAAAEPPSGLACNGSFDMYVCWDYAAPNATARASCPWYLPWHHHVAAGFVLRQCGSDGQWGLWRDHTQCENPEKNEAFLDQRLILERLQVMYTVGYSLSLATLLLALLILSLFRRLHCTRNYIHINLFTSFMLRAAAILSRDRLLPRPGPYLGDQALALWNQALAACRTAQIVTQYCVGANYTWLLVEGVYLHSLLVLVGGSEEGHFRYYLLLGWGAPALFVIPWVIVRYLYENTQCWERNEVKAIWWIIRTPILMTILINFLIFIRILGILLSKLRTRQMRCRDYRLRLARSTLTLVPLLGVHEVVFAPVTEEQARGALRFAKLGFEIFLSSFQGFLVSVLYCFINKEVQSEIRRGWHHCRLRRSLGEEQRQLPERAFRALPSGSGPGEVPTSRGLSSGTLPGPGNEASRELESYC

GIP receptor [4] = target: T2, GIP receptor; test: PathHunter β-arrestin assay, GIP receptor; parameters: host or cells: PathHunter CHO-K1 GIPR β-Arrestin Cell Line
[5] = read-out: GLP-1R β Arrestin EC50; β-arrestin-2 recruitment, PathHunter CHO-K1 GLP1R β-Arrestin Cell Line, 90 min at 37° C.; normalized to GLP-1
[6] = read-out: EC50 GLP-1R; CHO cells stably expressing human GLP-1 receptor, cAMP accumulation, 30 min
[7] = read-out: EC50 GIP-1R; CHO cells stably expressing GIP receptor, cAMP accumulation, 30 min
[8] = read-out: GIPR β Arrestin EC50; β-arrestin-2 recruitment, PathHunter CHO-K1 GIPR β-Arrestin Cell Line, 90 min at 37° C.; normalized to GIP
[9] = β-arrestin-2 recruitment, PathHunter CHO-K1 GLP1R β-Arrestin Cell Line, 90 min at 37° C.; normalized to GLP-1; read-out: GLP-1R β Arrestin EC50
[10] = CHO cells stably expressing human GLP-1 receptor, cAMP accumulation, 30 min; read-out: EC50 GLP-1R
[11] = CHO cells stably expressing GIP receptor, cAMP accumulation, 30 min; read-out: EC50 GIP-1R

SMILES	EC50 (GLP-1 receptor [1]; [5]) [µM]	EC50 (GLP-1 receptor [2]; [6]) [µM]	EC50 (GIP receptor [3]; [7]) [µM]	EC50 (GIP receptor [4]; [8]) [µM]	EC50 (GLP-1 receptor [1]; [9]) [µM]	EC50 (GLP-1 receptor [2]; [10]) [µM]	EC50 (GIP receptor [3]; [11]) [µM]	EC50 (GIP receptor [4]; β-arrestin-2 recruitment, PathHunter CHO-K1 GIPR β-Arrestin Cell Line, 90 min at 37° C.; normalized to GIP; read-out: GIPR β Arrestin EC50) [µM]
CC[C@H](C)[C@H](NC(=O)[C@H](CC(C)C)NC(=O)[C@H](Cc1c[nH]c2ccccc12)NC(=O)[C@H](CCC(N)=O)NC(=O)[C@@H](NC(=O)[C@H](Cc1ccccc1)NC(=O)[C@H](C)NC(=O)[C@H](CCCCNC(=O)COCCOCCNC(=O)COCCOCCNC(=O)CC[C@H](NC(=O)CCCCCCCCCCCCCCCCCCC(=O)O)C(=O)O)NC(=O)[C@H](CCC(N)=O)NC(=O)[C@H](C)NC(=O)[C@@H](NC(=O)[C@H](CCCCN)NC(=O)[C@H](CC(=O)O)NC(=O)[C@H](CC(C)C)NC(=O)C(C)(C)NC(=O)[C@@H](NC(=O)[C@H](CO)NC(=O)[C@H](Cc1ccc(O)cc1)NC(=O)[C@H](CC(=O)O)NC(=O)[C@H](CO)NC(=O)[C@@H](NC(=O)[C@H](Cc1ccccc1)NC(=O)[C@@H](NC(=O)CNC(=O)[C@H](CCC(=O)O)NC(=O)CCCNC(=O)CNC(=O)Nc1cccc(Cl)c1Cl)[C@@H](C)O)[C@@H](C)O)[C@@H](C)CC)[C@@H](C)CC)C(C)C)C(=O)N[C@@H](C)C(=O)NCC(=O)NCC(=O)N1CCC[C@H]1C(=O)N[C@@H](CO)C(=O)N[C@@H](CO)C(=O)NCC(=O)N[C@@H](C)C(=O)N1CCC[C@H]1C(=O)N1CCC[C@H]1C(=O)N1CCC[C@H]1C(=O)N[C@@H](CO)C(N)=O [Compound 262] ({X10-CO}-G[GABA]EGTFTSDYSI[Aib]LDKIAQK([AEEA-AEEA-γGlu-C20 diacid])AFVQWLIAGGPSSGAPPPS-NH2; C-terminus assumed)	> 1	0.01 to 0.1	0.001 to 0.01	> 1	–	–	–	–
CC[C@H](C)[C@H](NC(=O)[C@H](CC(C)C)NC(=O)[C@H](Cc1c[nH]c2ccccc12)NC(=O)[C@H](CCC(N)=O)NC(=O)[C@@H](NC(=O)[C@H](Cc1ccccc1)NC(=O)[C@H](C)NC(=O)[C@H](CCCCNC(=O)COCCOCCNC(=O)COCCOCCNC(=O)CC[C@H](NC(=O)CCCCCCCCCCCCCCCCCCC(=O)O)C(=O)O)NC(=O)[C@H](CCC(N)=O)NC(=O)[C@H](C)NC(=O)[C@@H](NC(=O)[C@H](CCCCN)NC(=O)[C@H](CC(=O)O)NC(=O)[C@H](CC(C)C)NC(=O)C(C)(C)NC(=O)[C@@H](NC(=O)[C@H](CO)NC(=O)[C@H](Cc1ccc(O)cc1)NC(=O)[C@H](CC(=O)O)NC(=O)[C@H](CO)NC(=O)[C@@H](NC(=O)[C@H](Cc1ccccc1)NC(=O)[C@@H](NC(=O)CNC(=O)[C@H](CCC(=O)O)NC(=O)CCNC(=O)C(C)(C)n1cc(Cl)cn1)[C@@H](C)O)[C@@H](C)O)[C@@H](C)CC)[C@@H](C)CC)C(C)C)C(=O)N[C@@H](C)C(=O)NCC(=O)NCC(=O)N1CCC[C@H]1C(=O)N[C@@H](CO)C(=O)N[C@@H](CO)C(=O)NCC(=O)N[C@@H](C)C(=O)N1CCC[C@H]1C(=O)N1CCC[C@H]1C(=O)N1CCC[C@H]1C(=O)N[C@@H](CO)C(N)=O [Compound 247] ({X40-βAla}-EGTFTSDYSI[Aib]LDKIAQK([AEEA-AEEA-γGlu-C20 diacid])AFVQWLIAGGPSSGAPPPS-NH2; C-terminus assumed)	–	–	–	–	> 1	0.0001 to 0.001	0.001 to 0.01	> 1
CC[C@H](C)[C@H](NC(=O)[C@H](CC(C)C)NC(=O)[C@H](Cc1c[nH]c2ccccc12)NC(=O)[C@H](CCC(N)=O)NC(=O)[C@@H](NC(=O)[C@H](Cc1ccccc1)NC(=O)[C@H](C)NC(=O)[C@H](CCCCNC(=O)COCCOCCNC(=O)COCCOCCNC(=O)CC[C@H](NC(=O)CCCCCCCCCCCCCCCCCCC(=O)O)C(=O)O)NC(=O)[C@H](CCC(N)=O)NC(=O)[C@H](C)NC(=O)[C@@H](NC(=O)[C@H](CCCCN)NC(=O)[C@H](CC(=O)O)NC(=O)[C@H](CC(C)C)NC(=O)C(C)(C)NC(=O)[C@@H](NC(=O)[C@H](CO)NC(=O)[C@H](Cc1ccc(O)cc1)NC(=O)[C@H](CC(=O)O)NC(=O)[C@H](CO)NC(=O)[C@@H](NC(=O)[C@H](Cc1ccccc1)NC(=O)[C@@H](NC(=O)CNC(=O)[C@H](CCC(=O)O)NC(=O)CCCNC(=O)CNC(=O)Nc1cccc(C)c1)[C@@H](C)O)[C@@H](C)O)[C@@H](C)CC)[C@@H](C)CC)C(C)C)C(=O)N[C@@H](C)C(=O)NCC(=O)NCC(=O)N1CCC[C@H]1C(=O)N[C@@H](CO)C(=O)N[C@@H](CO)C(=O)NCC(=O)N[C@@H](C)C(=O)N1CCC[C@H]1C(=O)N1CCC[C@H]1C(=O)N1CCC[C@H]1C(=O)N[C@@H](CO)C(N)=O [Compound 258] ({X67-CO}-G[GABA]EGTFTSDYSI[Aib]LDKIAQK([AEEA-AEEA-γGlu-C20 diacid])AFVQWLIAGGPSSGAPPPS-NH2; C-terminus assumed)	> 1	0.001 to 0.01	0.01 to 0.1	> 1	–	–	–	–
CC[C@H](C)[C@H](NC(=O)[C@H](CC(C)C)NC(=O)[C@H](Cc1c[nH]c2ccccc12)NC(=O)[C@H](CCC(N)=O)NC(=O)[C@@H](NC(=O)[C@H](Cc1ccccc1)NC(=O)[C@H](C)NC(=O)[C@H](CCCCNC(=O)COCCOCCNC(=O)COCCOCCNC(=O)CC[C@H](NC(=O)CCCCCCCCCCCCCCCCCCC(=O)O)C(=O)O)NC(=O)[C@H](CCC(N)=O)NC(=O)[C@H](C)NC(=O)[C@@H](NC(=O)[C@H](CCCCN)NC(=O)[C@H](CC(=O)O)NC(=O)[C@H](CC(C)C)NC(=O)C(C)(C)NC(=O)[C@@H](NC(=O)[C@H](CO)NC(=O)[C@H](Cc1ccc(O)cc1)NC(=O)[C@H](CC(=O)O)NC(=O)[C@H](CO)NC(=O)[C@@H](NC(=O)[C@H](Cc1ccccc1)NC(=O)[C@@H](NC(=O)CNC(=O)[C@H](CCC(=O)O)NC(=O)CCCNC(=O)C(C)(C)n1cc(Cl)cn1)[C@@H](C)O)[C@@H](C)O)[C@@H](C)CC)[C@@H](C)CC)C(C)C)C(=O)N[C@@H](C)C(=O)NCC(=O)NCC(=O)N1CCC[C@H]1C(=O)N[C@@H](CO)C(=O)N[C@@H](CO)C(=O)NCC(=O)N[C@@H](C)C(=O)N1CCC[C@H]1C(=O)N1CCC[C@H]1C(=O)N1CCC[C@H]1C(=O)N[C@@H](CO)C(N)=O [Compound 248] ({X40-GABA}-EGTFTSDYSI[Aib]LDKIAQK([AEEA-AEEA-γGlu-C20 diacid])AFVQWLIAGGPSSGAPPPS-NH2; C-terminus assumed)	–	–	–	–	> 1	0.0001 to 0.001	0.001 to 0.01	–
CC[C@H](C)[C@H](NC(=O)[C@H](CC(C)C)NC(=O)[C@H](Cc1c[nH]c2ccccc12)NC(=O)[C@H](CCC(N)=O)NC(=O)[C@@H](NC(=O)[C@H](Cc1ccccc1)NC(=O)[C@H](C)NC(=O)[C@H](CCCCNC(=O)COCCOCCNC(=O)COCCOCCNC(=O)CC[C@H](NC(=O)CCCCCCCCCCCCCCCCCCC(=O)O)C(=O)O)NC(=O)[C@H](CCC(N)=O)NC(=O)[C@H](C)NC(=O)[C@@H](NC(=O)[C@H](CCCCN)NC(=O)[C@H](CC(=O)O)NC(=O)[C@H](CC(C)C)NC(=O)C(C)(C)NC(=O)[C@@H](NC(=O)[C@H](CO)NC(=O)[C@H](Cc1ccc(O)cc1)NC(=O)[C@H](CC(=O)O)NC(=O)[C@H](CO)NC(=O)[C@@H](NC(=O)[C@H](Cc1ccccc1)NC(=O)[C@@H](NC(=O)CNC(=O)[C@H](CCC(=O)O)NC(=O)CCNC(=O)C(C)(C)n1ccc(C)n1)[C@@H](C)O)[C@@H](C)O)[C@@H](C)CC)[C@@H](C)CC)C(C)C)C(=O)N[C@@H](C)C(=O)NCC(=O)NCC(=O)N1CCC[C@H]1C(=O)N[C@@H](CO)C(=O)N[C@@H](CO)C(=O)NCC(=O)N[C@@H](C)C(=O)N1CCC[C@H]1C(=O)N1CCC[C@H]1C(=O)N1CCC[C@H]1C(=O)N[C@@H](CO)C(N)=O [Compound 253] ({X83-βAla}-EGTFTSDYSI[Aib]LDKIAQK([AEEA-AEEA-γGlu-C20 diacid])AFVQWLIAGGPSSGAPPPS-NH2; C-terminus assumed)	–	–	–	–	< 1	< 0.0001	0.001 to 0.01	–
